# Whole data set: some 2,900 compounds, median “NF-kB SEAP reporter activity, fold change vs agonist alone” near 0.99, cut for the highest 2% near 2.6. Some of the results follow.
# Tests used:
# RAW-Dual [1] = experiment: NF-kB SEAP reporter activity, fold change vs agonist alone; cytotoxicity flag (confluency mask): not cytotoxic; higher = enhanced NF-kB activity
# Method in brief: (§1)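 After 50 nL of library stock was delivered by pin tool to RAW-Dual macrophages (50,000 cells/well, DMEM, 384-well plates), a PRR agonist was added 1 h later and the plates were kept at 37 °C, 5% CO2. Twenty hours later, IRF was read from supernatant by QuantiLuc luminescence and NF-κB by QuantiBlue absorbance at 620 nm. Reporter activity is stated as fold change over agonist-alone wells. Wells with IncuCyte confluency under 70% of agonist controls in both mask sets were counted as cytotoxic.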
# RAW-Dual [2] = experiment: NF-kB SEAP reporter activity, fold change vs agonist alone; higher = enhanced NF-kB activity; details: library stock concentration (final ~1000-fold dilution): 10 mM
# Method in brief: as §1
# RAW-Dual [3] = experiment: NF-kB SEAP reporter activity, fold change vs agonist alone; cytotoxicity flag (confluency mask): cytotoxic (confluency <70% of control); higher = enhanced NF-kB activity
# Method in brief: as §1
# [4] = agonist: ODN 1826 (TLR9) 0.5 ug/mL
# [5] = agonist: Pam2CSK4 (TLR2/6) 0.1 ug/mL
# [6] = agonist: Pam3CSK4 (TLR2/1) 0.1 ug/mL
# [7] = cytotoxicity flag (confluency mask): not cytotoxic, agonist: Imiquimod (TLR7) […]
# [8] = cytotoxicity flag (confluency mask): not cytotoxic, agonist: MPLA (TLR4) […]
compound,measurement,setting,value
O=C(NC(Cc1cc(=O)[nH]c2ccccc12)C(=O)O)c1ccc(Cl)cc1 (stereo not drawn) (library stock concentration (final ~1000-fold dilution): 10 mM),NF-kB SEAP reporter activity,RAW-Dual [1]; agonist: LPS (TLR4) 0.1 ug/mL,1.26
same,NF-kB SEAP reporter activity,RAW-Dual [1]; [4],0.836
same,NF-kB SEAP reporter activity,RAW-Dual [1]; [5],1.03
same,NF-kB SEAP reporter activity,RAW-Dual [1]; [6],1.12
O=C(NC(Cc1cc(=O)[nH]c2ccccc12)C(=O)O)c1ccc(Cl)cc1 (stereo not drawn),NF-kB SEAP reporter activity,RAW-Dual [2]; [7],0.892
same,NF-kB SEAP reporter activity,RAW-Dual [2]; [8],1.01
Cc1cc(Nc2ncnc3ccc(NC4=NC(C)(C)CO4)cc23)ccc1Oc1ccn2ncnc2c1,NF-kB SEAP reporter activity,RAW-Dual [2]; [7],0.247
same,NF-kB SEAP reporter activity,RAW-Dual [2]; [8],1.01
Cc1cc(Nc2ncnc3ccc(NC4=NC(C)(C)CO4)cc23)ccc1Oc1ccn2ncnc2c1 (library stock concentration (final ~1000-fold dilution): 10 mM),NF-kB SEAP reporter activity,RAW-Dual [1]; agonist: LPS (TLR4) 0.1 ug/mL,1.1
same,NF-kB SEAP reporter activity,RAW-Dual [1]; [4],0.65
same,NF-kB SEAP reporter activity,RAW-Dual [1]; [5],0.749
same,NF-kB SEAP reporter activity,RAW-Dual [1]; [6],1.04
O=C(c1c(F)ccc(NS(=O)(=O)N2CCC(F)C2)c1F)c1c[nH]c2ncc(-c3cnc(C4CC4)nc3)cc12 (stereo not drawn),NF-kB SEAP reporter activity,RAW-Dual [2]; [7],1.12
same,NF-kB SEAP reporter activity,RAW-Dual [2]; [8],1.52
O=C(c1c(F)ccc(NS(=O)(=O)N2CCC(F)C2)c1F)c1c[nH]c2ncc(-c3cnc(C4CC4)nc3)cc12 (stereo not drawn) (library stock concentration (final ~1000-fold dilution): 10 mM),NF-kB SEAP reporter activity,RAW-Dual [1]; agonist: LPS (TLR4) 0.1 ug/mL,3.62
same,NF-kB SEAP reporter activity,RAW-Dual [1]; [4],1.42
same,NF-kB SEAP reporter activity,RAW-Dual [1]; [5],0.526
same,NF-kB SEAP reporter activity,RAW-Dual [1]; [6],0.5
O=C(NC1=CC(=O)[C@@H]2O[C@@H]2[C@@H]1O)c1ccccc1O,NF-kB SEAP reporter activity,RAW-Dual [2]; [7],0.849
same,NF-kB SEAP reporter activity,RAW-Dual [2]; [8],0.949
O=C(NC1=CC(=O)[C@@H]2O[C@@H]2[C@@H]1O)c1ccccc1O (library stock concentration (final ~1000-fold dilution): 10 mM),NF-kB SEAP reporter activity,RAW-Dual [1]; agonist: LPS (TLR4) 0.1 ug/mL,0.954
same,NF-kB SEAP reporter activity,RAW-Dual [1]; [4],0.718
same,NF-kB SEAP reporter activity,RAW-Dual [1]; [5],0.356
same,NF-kB SEAP reporter activity,RAW-Dual [1]; [6],0.314
CC(C)NC(=O)C1CCC(n2c(=NC(=O)c3ccc(F)cc3)[nH]c3ccc(CN4CCC(C(C)(C)O)CC4)cc32)CC1 (stereo not drawn) (library stock concentration (final ~1000-fold dilution): 10 mM),NF-kB SEAP reporter activity,RAW-Dual [1]; agonist: LPS (TLR4) 0.1 ug/mL,1.17
same,NF-kB SEAP reporter activity,RAW-Dual [1]; [4],0.713
same,NF-kB SEAP reporter activity,RAW-Dual [1]; [5],1.24
same,NF-kB SEAP reporter activity,RAW-Dual [1]; [6],2.16
CC(C)NC(=O)C1CCC(n2c(=NC(=O)c3ccc(F)cc3)[nH]c3ccc(CN4CCC(C(C)(C)O)CC4)cc32)CC1 (stereo not drawn),NF-kB SEAP reporter activity,RAW-Dual [2]; [7],1.44
same,NF-kB SEAP reporter activity,RAW-Dual [2]; [8],0.822
Cc1cccc(Nc2nc(NC3CCCCC3N)ncc2C(N)=O)c1.Cl.Cl (stereo not drawn),NF-kB SEAP reporter activity,"RAW-Dual [2]; cytotoxicity flag (confluency mask): cytotoxic (confluency <70% of control), agonist: Imiquimod (TLR7) […]",0.364
same,NF-kB SEAP reporter activity,"RAW-Dual [2]; cytotoxicity flag (confluency mask): cytotoxic (confluency <70% of control), agonist: MPLA (TLR4) […]",0.345
Cc1cccc(Nc2nc(NC3CCCCC3N)ncc2C(N)=O)c1.Cl.Cl (stereo not drawn) (library stock concentration (final ~1000-fold dilution): 10 mM),NF-kB SEAP reporter activity,RAW-Dual [3]; agonist: LPS (TLR4) 0.1 ug/mL,0.227
same,NF-kB SEAP reporter activity,RAW-Dual [3]; [4],0.179
same,NF-kB SEAP reporter activity,RAW-Dual [3]; [5],0.158
same,NF-kB SEAP reporter activity,RAW-Dual [3]; [6],0.187
O=C(O)CCN1C(=O)/C(=C2/C(=O)Nc3ccc(Cl)cc32)SC1=S (library stock concentration (final ~1000-fold dilution): 10 mM),NF-kB SEAP reporter activity,RAW-Dual [1]; agonist: LPS (TLR4) 0.1 ug/mL,1.86
same,NF-kB SEAP reporter activity,RAW-Dual [1]; [4],0.841
same,NF-kB SEAP reporter activity,RAW-Dual [1]; [5],1.4
same,NF-kB SEAP reporter activity,RAW-Dual [1]; [6],1.57
O=C(O)CCN1C(=O)/C(=C2/C(=O)Nc3ccc(Cl)cc32)SC1=S,NF-kB SEAP reporter activity,RAW-Dual [2]; [7],0.954
same,NF-kB SEAP reporter activity,RAW-Dual [2]; [8],1.18
COc1cc(Nc2ncc3c(n2)-c2ccc(Cl)cc2C(c2c(F)cccc2OC)=NC3)ccc1C(=O)O (library stock concentration (final ~1000-fold dilution): 10 mM),NF-kB SEAP reporter activity,RAW-Dual [1]; agonist: LPS (TLR4) 0.1 ug/mL,0.64
same,NF-kB SEAP reporter activity,RAW-Dual [1]; [4],0.531
same,NF-kB SEAP reporter activity,RAW-Dual [1]; [5],0.392
same,NF-kB SEAP reporter activity,RAW-Dual [1]; [6],0.497
COc1cc(Nc2ncc3c(n2)-c2ccc(Cl)cc2C(c2c(F)cccc2OC)=NC3)ccc1C(=O)O,NF-kB SEAP reporter activity,RAW-Dual [2]; [7],0.662
same,NF-kB SEAP reporter activity,RAW-Dual [2]; [8],0.756
O=C(O)c1cc(C(=O)O)c(C(=O)N(Cc2cccc(Oc3ccccc3)c2)C2CCCc3ccccc32)cc1C(=O)O (stereo not drawn),NF-kB SEAP reporter activity,RAW-Dual [2]; [7],0.916
same,NF-kB SEAP reporter activity,RAW-Dual [2]; [8],0.909
O=C(O)c1cc(C(=O)O)c(C(=O)N(Cc2cccc(Oc3ccccc3)c2)C2CCCc3ccccc32)cc1C(=O)O (stereo not drawn) (library stock concentration (final ~1000-fold dilution): 10 mM),NF-kB SEAP reporter activity,RAW-Dual [1]; agonist: LPS (TLR4) 0.1 ug/mL,1.22
same,NF-kB SEAP reporter activity,RAW-Dual [1]; [4],0.926
same,NF-kB SEAP reporter activity,RAW-Dual [1]; [5],1.03
same,NF-kB SEAP reporter activity,RAW-Dual [1]; [6],1.07
CCc1ccc(/C=C2/SC(=S)NC2=O)cc1 (library stock concentration (final ~1000-fold dilution): 10 mM),NF-kB SEAP reporter activity,RAW-Dual [1]; agonist: LPS (TLR4) 0.1 ug/mL,0.985
same,NF-kB SEAP reporter activity,RAW-Dual [1]; [4],0.738
same,NF-kB SEAP reporter activity,RAW-Dual [1]; [5],0.864
same,NF-kB SEAP reporter activity,RAW-Dual [1]; [6],0.461
CCc1ccc(/C=C2/SC(=S)NC2=O)cc1,NF-kB SEAP reporter activity,RAW-Dual [2]; [7],0.857
same,NF-kB SEAP reporter activity,RAW-Dual [2]; [8],0.857
Cc1ccc(Nc2nccc(N(C)c3ccc4c(C)n(C)nc4c3)n2)cc1S(N)(=O)=O (library stock concentration (final ~1000-fold dilution): 10 mM),NF-kB SEAP reporter activity,RAW-Dual [1]; agonist: LPS (TLR4) 0.1 ug/mL,2.03
same,NF-kB SEAP reporter activity,RAW-Dual [1]; [4],1.33
same,NF-kB SEAP reporter activity,RAW-Dual [1]; [5],0.781
same,NF-kB SEAP reporter activity,RAW-Dual [1]; [6],1.17
Cc1ccc(Nc2nccc(N(C)c3ccc4c(C)n(C)nc4c3)n2)cc1S(N)(=O)=O,NF-kB SEAP reporter activity,RAW-Dual [2]; [7],1.68
same,NF-kB SEAP reporter activity,RAW-Dual [2]; [8],1.9
CN1CCc2c(c3ccccc3n2Cc2ccc(C(=O)NO)cc2)C1.Cl,NF-kB SEAP reporter activity,RAW-Dual [2]; [7],2.44
same,NF-kB SEAP reporter activity,RAW-Dual [2]; [8],2.55
CN1CCc2c(c3ccccc3n2Cc2ccc(C(=O)NO)cc2)C1.Cl (library stock concentration (final ~1000-fold dilution): 10 mM),NF-kB SEAP reporter activity,RAW-Dual [1]; agonist: LPS (TLR4) 0.1 ug/mL,5.1
same,NF-kB SEAP reporter activity,RAW-Dual [1]; [4],1.71
same,NF-kB SEAP reporter activity,RAW-Dual [1]; [5],1.08
same,NF-kB SEAP reporter activity,RAW-Dual [1]; [6],1.59
COc1cccc(-c2cc(F)ccc2C2Cc3nc(N)nc(C)c3C(=O)N2)n1 (stereo not drawn),NF-kB SEAP reporter activity,RAW-Dual [2]; [7],0.226
same,NF-kB SEAP reporter activity,RAW-Dual [2]; [8],0.406
COc1cccc(-c2cc(F)ccc2C2Cc3nc(N)nc(C)c3C(=O)N2)n1 (stereo not drawn) (library stock concentration (final ~1000-fold dilution): 10 mM),NF-kB SEAP reporter activity,RAW-Dual [1]; agonist: LPS (TLR4) 0.1 ug/mL,0.206
same,NF-kB SEAP reporter activity,RAW-Dual [1]; [4],0.215
same,NF-kB SEAP reporter activity,RAW-Dual [1]; [5],0.0694
same,NF-kB SEAP reporter activity,RAW-Dual [1]; [6],0.145
